Measurements as given in publication PMC4336329 (PLoS ONE, 2015).
Screen size: about 310,000 compounds; about 2,200 (0.71%) showed an effect of 50% or more. Effects have a minus sign here. The list shows a part of the results.

target: human ether-à-go-go-related gene (hERG) potassium channel (human, UniProt Q12809); assay: primary screen, population patch clamp on CHO cells stably expressing hERG
Sequence (Q12809 whole entry, looked up): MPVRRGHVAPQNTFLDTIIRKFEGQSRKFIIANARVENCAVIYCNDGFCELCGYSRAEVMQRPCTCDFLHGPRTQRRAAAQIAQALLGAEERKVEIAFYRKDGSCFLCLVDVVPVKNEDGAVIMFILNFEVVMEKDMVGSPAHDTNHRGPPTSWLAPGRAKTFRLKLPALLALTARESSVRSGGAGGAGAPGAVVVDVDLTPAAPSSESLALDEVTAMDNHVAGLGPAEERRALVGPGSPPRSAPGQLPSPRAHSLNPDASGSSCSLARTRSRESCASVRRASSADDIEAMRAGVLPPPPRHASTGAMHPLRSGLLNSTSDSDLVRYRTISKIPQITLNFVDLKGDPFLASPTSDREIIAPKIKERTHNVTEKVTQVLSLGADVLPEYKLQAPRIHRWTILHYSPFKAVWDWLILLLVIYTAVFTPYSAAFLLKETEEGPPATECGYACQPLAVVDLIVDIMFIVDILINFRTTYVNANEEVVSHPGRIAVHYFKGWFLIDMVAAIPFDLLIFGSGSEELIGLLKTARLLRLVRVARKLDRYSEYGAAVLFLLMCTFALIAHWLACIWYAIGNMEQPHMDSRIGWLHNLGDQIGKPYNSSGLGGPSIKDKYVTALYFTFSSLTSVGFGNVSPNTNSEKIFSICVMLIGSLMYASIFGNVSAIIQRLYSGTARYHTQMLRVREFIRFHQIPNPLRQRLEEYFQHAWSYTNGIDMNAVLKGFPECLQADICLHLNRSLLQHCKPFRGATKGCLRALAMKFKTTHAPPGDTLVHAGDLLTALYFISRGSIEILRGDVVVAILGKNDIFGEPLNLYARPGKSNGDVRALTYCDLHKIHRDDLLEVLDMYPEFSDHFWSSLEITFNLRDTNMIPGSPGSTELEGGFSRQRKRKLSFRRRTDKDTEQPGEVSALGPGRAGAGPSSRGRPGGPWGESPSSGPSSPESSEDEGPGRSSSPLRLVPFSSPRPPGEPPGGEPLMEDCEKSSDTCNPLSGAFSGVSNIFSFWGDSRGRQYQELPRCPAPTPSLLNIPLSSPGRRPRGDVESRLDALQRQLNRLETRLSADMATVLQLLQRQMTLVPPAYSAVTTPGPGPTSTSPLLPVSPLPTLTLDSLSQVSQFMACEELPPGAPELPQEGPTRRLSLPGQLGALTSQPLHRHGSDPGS

First: Clc1ccc2c(c1)C(c1ccccc1Cl)=NCc1nnc(N3CCN(CCSc4ccccc4)CC3)n1-2.O.O=C(O)/C=C/C(=O)O
Second: O=C(/C=C/c1cn(-c2ccccc2)nc1-c1cccc(Cl)c1)N1CCN(c2ccccn2)CC1
The “hERG current change (%, negative = inhibition) at 1uM” value of the first is lower: -10.8% for the first, 11% for the second.

Going from `O=c1cc2c(nn1Cc1ccc(Cl)cc1)-c1ccccc1CC2` to `Cc1ccccc1Cn1nc(C)c(NC(=O)c2noc3c2CCc2ccccc2-3)c1C`, the “hERG current change (%, negative = inhibition) at 1uM” value rises from 9.57% to 17.9%.

Going from `COc1cccc(CNCc2ccccn2)c1OC` to `COc1ccccc1N1CCN(C(=O)c2cc3c(=O)n4cccc(C)c4nc3s2)CC1`, the “hERG current change (%, negative = inhibition) at 1uM” value rises from 7.94% to 14.1%.

First: CCOC(=O)CSCCOc1ccc(C=C2C(=O)NC(=O)NC2=O)cc1OC
Second: COc1cc(CNc2ccc3[nH]c(=O)[nH]c3c2)ccc1OCC(=O)NC(C)(C)C
The “hERG current change (%, negative = inhibition) at 1uM” value of the first is higher: 16.7% for the first, 8.94% for the second.

First: Cn1c(=O)n(C)c2cc(S(=O)(=O)NCc3ccccc3)ccc21
Second: Cc1ccc(NC(=S)NCc2ccccc2)cc1S(=O)(=O)N1CCCCC1
The “hERG current change (%, negative = inhibition) at 1uM” value of the first is lower: 8.26% for the first, 10% for the second.

Compared with `O=C(/C=C/c1ccccc1)N1CCC(Cc2ccccc2)CC1`, `CCC(C)(C)n1nnnc1C(c1ccncc1)N1CCC(Cc2ccccc2)CC1` (stereo not shown) is higher in “hERG current change (%, negative = inhibition) at 1uM” value: 0.436% for the first, 9.24% for the second.

Compared with `COc1ccc(S(=O)(=O)N2CCCC(C(=O)N3CCOCC3)C2)cc1C` (stereo not shown), `Cc1ccccc1-c1nc(CS(=O)(=O)CC(=O)N2CCOCC2)c(C)o1` is higher in “hERG current change (%, negative = inhibition) at 1uM” value: 8.72% for the first, 11.4% for the second.

First: CNc1nc(Nc2ccc(C)c(Cl)c2)c2cnn(C)c2n1
Second: CCOC(=O)c1[nH]c(C)c(C(=O)N2CCCC(Nc3ccc(C)c(C)c3)C2)c1C (stereo not shown)
The “hERG current change (%, negative = inhibition) at 1uM” value of the first is higher: 13.3% for the first, 4.33% for the second.

Going from `CC(C)NC(=O)CCS(=O)(=O)c1ccc(Br)s1` to `CC(NC(=O)C[n+]1cccc(Br)c1)c1ccccc1.[Cl-]` (stereo not shown), the “hERG current change (%, negative = inhibition) at 1uM” value falls from 16.6% to 11.9%.

Compared with `CCOC(=O)c1ccc(NC(=O)c2ccc3c(c2)C(=O)N(Cc2cccnc2)C3=O)cc1`, `CCN(CC)CCNC(=O)c1ccc(NC(=O)c2ccc(Cl)c(S(=O)(=O)N3CCCCCC3)c2)cc1.Cl` is lower in “hERG current change (%, negative = inhibition) at 1uM” value: 2.77% for the first, 1.9% for the second.

First: COc1ccc(-c2nnc(SCC(=O)N3c4ccccc4Sc4ccccc43)o2)cc1
Second: COc1ccc(-n2c(Cc3cccn3C)nnc2SCC(=O)Nc2ccccc2F)cc1
The “hERG current change (%, negative = inhibition) at 1uM” value of the first is higher: 9.22% for the first, -9.19% for the second.

First: COc1cccc(N(CC(=O)NC2CCCC2)C(=O)Cn2nnc(-c3ccc(C)cc3)n2)c1
Second: Cc1cc(Br)ccc1OCC(=O)NNC(=O)c1ccc(NC(=O)C2CC2)cc1
The “hERG current change (%, negative = inhibition) at 1uM” value of the first is lower: 7.63% for the first, 12.8% for the second.

First: O=C1N[C@@H](Cc2ccccc2)C(=O)N2[C@@H]1C[C@@]1(Br)c3ccccc3N(S(=O)(=O)c3ccccc3)[C@@H]21
Second: COc1cc(C2C(C#N)=C(N)N(Nc3ccccc3)C3=C2C(=O)CC(C)(C)C3)ccc1OCc1ccccc1 (stereo not shown)
The “hERG current change (%, negative = inhibition) at 1uM” value of the first is lower: 2.53% for the first, 15% for the second.

Going from `O=C(/C=C/c1cccs1)c1ccc(N2CCOCC2)cc1` to `O=C(NC(=S)Nc1ccc(N2CCOCC2)cc1)c1cccc([N+](=O)[O-])c1`, the “hERG current change (%, negative = inhibition) at 1uM” value falls from 22.6% to 13.5%.

Going from `O=C(/C=C/c1ccccc1)NCC(=O)N/N=C\c1cccnc1` to `COCCNC(=O)C(c1ccco1)N(C(=O)Cn1nnc2ccccc21)c1ccccc1C` (stereo not shown), the “hERG current change (%, negative = inhibition) at 1uM” value rises from 8.35% to 9.38%.

First: COc1ccc(N(C(=O)c2ccncc2)S(=O)(=O)c2cccs2)cc1
Second: COc1ccc(/C(C)=N/NC(=O)c2ccc(N(C)C)cc2)cc1
The “hERG current change (%, negative = inhibition) at 1uM” value of the first is lower: 2.26% for the first, 6.18% for the second.

Going from `COCCCn1c(SCC(=O)NNC(=O)c2cccc(O)c2)nnc1-c1ccncc1` to `COCCCNC(=O)c1cc(C(=O)c2c(-c3c(Cl)cccc3Cl)noc2C)c[nH]1`, the “hERG current change (%, negative = inhibition) at 1uM” value rises from 8.91% to 11.9%.

Compared with `Cc1nonc1NC(=O)OC1CCCCC1`, `CCc1c(C)nc2ncnn2c1N1CCCC(C(=O)NCc2ccc3c(c2)OCO3)C1` (stereo not shown) is lower in “hERG current change (%, negative = inhibition) at 1uM” value: 0.399% for the first, -2.65% for the second.

Compared with `CC(C)OC(=O)c1cccnc1N1CCN(c2cccc(Cl)c2)CC1`, `Cc1ccc(OCC(=O)Sc2ccc(C)cc2)cc1` is lower in “hERG current change (%, negative = inhibition) at 1uM” value: 10.5% for the first, 6.84% for the second.

Going from `NC(=O)NNc1cccc(Cl)n1` to `COC(=O)CC1SC(=O)NC1=Nc1ccc(OC)cc1` (stereo not shown), the “hERG current change (%, negative = inhibition) at 1uM” value falls from 13.7% to 5.72%.

First: CCOc1ccccc1C(=O)NCC(=O)OCC(=O)N1C(C)CCCC1C (stereo not shown)
Second: CCCCN(C)C(=O)c1ccc(CS(=O)(=O)c2ccccc2C)o1
The “hERG current change (%, negative = inhibition) at 1uM” value of the first is higher: 2.6% for the first, -15.2% for the second.

With `COc1ccc(NC(=O)c2ccc(OC(=S)N(C)c3ccc(OC)cc3)cc2)cc1` the “hERG current change (%, negative = inhibition) at 1uM” value was 15.7%.
